Assay results: publication PMC9911399, “Two distinct binding modes provide the RNA-binding protein RbFox with extraordinary sequence specificity”
Residue numbers refer to the chain shown, from its start. This is one part of the list.

T1: RBFOX1 RRM (Homo sapiens, UniProt Q9NWB1 109-208)
T1 sequence: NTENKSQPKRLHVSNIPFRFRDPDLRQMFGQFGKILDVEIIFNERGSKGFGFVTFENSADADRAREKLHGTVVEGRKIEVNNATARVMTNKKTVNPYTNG

B1: GUUCAUU (DNA:RNA)
RNA: GGGAGACCGGAAUUCAGAUUGUCCGUUCAUUUUAAAUCCCGUCGUAGCCACCA
DNA 1: CAATCTGAATTCCGGTCTCCC
DNA 2: TGGTGGCTACGACGGGATT
B2: CUAUAGG (DNA:RNA)
RNA: B1 RNA with G25C, U27A, C28U, U30G, U31G
DNA 1: CAATCTGAATTCCGGTCTCCC
DNA 2: TGGTGGCTACGACGGGATT
B3: AAGCACU (DNA:RNA)
RNA: B1 RNA with G25A, U26A, U27G, U30C
DNA 1: CAATCTGAATTCCGGTCTCCC
DNA 2: TGGTGGCTACGACGGGATT
B4: GAGCUCG (DNA:RNA)
RNA: B1 RNA with U26A, U27G, A29U, U30C, U31G
DNA 1: CAATCTGAATTCCGGTCTCCC
DNA 2: TGGTGGCTACGACGGGATT
B5: ACCUGUU (DNA:RNA)
RNA: B1 RNA with G25A, U26C, U27C, C28U, A29G
DNA 1: CAATCTGAATTCCGGTCTCCC
DNA 2: TGGTGGCTACGACGGGATT
B6: UGUCGUC (DNA:RNA)
RNA: B1 RNA with G25U, U26G, A29G, U31C
DNA 1: CAATCTGAATTCCGGTCTCCC
DNA 2: TGGTGGCTACGACGGGATT
B7: AUAUGAA (DNA:RNA)
RNA: B1 RNA with G25A, U27A, C28U, A29G, U30A, U31A
DNA 1: CAATCTGAATTCCGGTCTCCC
DNA 2: TGGTGGCTACGACGGGATT
B8: CCCGGCU (DNA:RNA)
RNA: B1 RNA with G25C, U26C, U27C, C28G, A29G, U30C
DNA 1: CAATCTGAATTCCGGTCTCCC
DNA 2: TGGTGGCTACGACGGGATT
B9: UUUGGGG (DNA:RNA)
RNA: B1 RNA with G25U, C28G, A29G, U30G, U31G
DNA 1: CAATCTGAATTCCGGTCTCCC
DNA 2: TGGTGGCTACGACGGGATT
B10: UCGCACA (DNA:RNA)
RNA: B1 RNA with G25U, U26C, U27G, U30C, U31A
DNA 1: CAATCTGAATTCCGGTCTCCC
DNA 2: TGGTGGCTACGACGGGATT
B11: CGGGCCA (DNA:RNA)
RNA: GGGAGACCGGAAUUCAGAUUGUCCCGGGCCAUUAAAUCCCGUCGUAGCCACCA
DNA 1: CAATCTGAATTCCGGTCTCCC
DNA 2: TGGTGGCTACGACGGGATT
B12: AAACACC (DNA:RNA)
RNA: B1 RNA with G25A, U26A, U27A, U30C, U31C
DNA 1: CAATCTGAATTCCGGTCTCCC
DNA 2: TGGTGGCTACGACGGGATT
B13: GGGUCCA (DNA:RNA)
RNA: B11 RNA with C25G, G28U
DNA 1: CAATCTGAATTCCGGTCTCCC
DNA 2: TGGTGGCTACGACGGGATT
B14: UAAAAAC (DNA:RNA)
RNA: B1 RNA with G25U, U26A, U27A, C28A, U30A, U31C
DNA 1: CAATCTGAATTCCGGTCTCCC
DNA 2: TGGTGGCTACGACGGGATT
B15: CGACUGC (DNA:RNA)
RNA: B11 RNA with G27A, G28C, C29U, C30G, A31C
DNA 1: CAATCTGAATTCCGGTCTCCC
DNA 2: TGGTGGCTACGACGGGATT
B16: GGCCUAA (DNA:RNA)
RNA: B11 RNA with C25G, G27C, G28C, C29U, C30A
DNA 1: CAATCTGAATTCCGGTCTCCC
DNA 2: TGGTGGCTACGACGGGATT
B17: CUUGUUU (DNA:RNA)
RNA: B1 RNA with G25C, C28G, A29U
DNA 1: CAATCTGAATTCCGGTCTCCC
DNA 2: TGGTGGCTACGACGGGATT
B18: UGUAAAU (DNA:RNA)
RNA: B1 RNA with G25U, U26G, C28A, U30A
DNA 1: CAATCTGAATTCCGGTCTCCC
DNA 2: TGGTGGCTACGACGGGATT
B19: UUGAUAC (DNA:RNA)
RNA: B11 RNA with C25U, G26U, G28A, C29U, C30A, A31C
DNA 1: CAATCTGAATTCCGGTCTCCC
DNA 2: TGGTGGCTACGACGGGATT
B20: ACUUGGG (DNA:RNA)
RNA: B1 RNA with G25A, U26C, C28U, A29G, U30G, U31G
DNA 1: CAATCTGAATTCCGGTCTCCC
DNA 2: TGGTGGCTACGACGGGATT
B21: ACCUCGA (DNA:RNA)
RNA: B11 RNA with C25A, G26C, G27C, G28U, C30G
DNA 1: CAATCTGAATTCCGGTCTCCC
DNA 2: TGGTGGCTACGACGGGATT
B22: CGGGCAU (DNA:RNA)
RNA: B11 RNA with C30A, A31U
DNA 1: CAATCTGAATTCCGGTCTCCC
DNA 2: TGGTGGCTACGACGGGATT
B23: ACUACAA (DNA:RNA)
RNA: B11 RNA with C25A, G26C, G27U, G28A, C30A
DNA 1: CAATCTGAATTCCGGTCTCCC
DNA 2: TGGTGGCTACGACGGGATT
B24: GUUUAUU (DNA:RNA)
RNA: B1 RNA with C28U
DNA 1: CAATCTGAATTCCGGTCTCCC
DNA 2: TGGTGGCTACGACGGGATT
B25: UCAGCCA (DNA:RNA)
RNA: B11 RNA with C25U, G26C, G27A
DNA 1: CAATCTGAATTCCGGTCTCCC
DNA 2: TGGTGGCTACGACGGGATT
B26: AGUCUUC (DNA:RNA)
RNA: B1 RNA with G25A, U26G, A29U, U31C
DNA 1: CAATCTGAATTCCGGTCTCCC
DNA 2: TGGTGGCTACGACGGGATT
B27: UGAUGCA (DNA:RNA)
RNA: B11 RNA with C25U, G27A, G28U, C29G
DNA 1: CAATCTGAATTCCGGTCTCCC
DNA 2: TGGTGGCTACGACGGGATT
B28: CCGGAGU (DNA:RNA)
RNA: B11 RNA with G26C, C29A, C30G, A31U
DNA 1: CAATCTGAATTCCGGTCTCCC
DNA 2: TGGTGGCTACGACGGGATT
B29: GAAAGGA (DNA:RNA)
RNA: B11 RNA with C25G, G26A, G27A, G28A, C29G, C30G
DNA 1: CAATCTGAATTCCGGTCTCCC
DNA 2: TGGTGGCTACGACGGGATT
B30: CUAUCCC (DNA:RNA)
RNA: B11 RNA with G26U, G27A, G28U, A31C
DNA 1: CAATCTGAATTCCGGTCTCCC
DNA 2: TGGTGGCTACGACGGGATT
B31: CUUAAGA (DNA:RNA)
RNA: B1 RNA with G25C, C28A, U30G, U31A
DNA 1: CAATCTGAATTCCGGTCTCCC
DNA 2: TGGTGGCTACGACGGGATT

Molecular target: T1, RBFOX1 RRM
Assay: EMSA; HiTS-Eq, 1 nM pool, 10 min; buffer printed only for the single-RNA assays: 10 mM Tris pH 7.5, 150 mM NaCl, 3.4 mM EDTA, 0.001% NP-40, 30 C
Settings: tags: His6 N-terminal (pET28a); label: 5' 32P
Method in brief: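 A pool of RNA with 7 randomized nucleotides, 5′-radiolabelled and with DNA-annealed flanks, was equilibrated at 1 nM for 10 min in 50 µL with purified RbFox RRM, wild type or mutant, across increasing protein concentrations. Free RNA was separated by 8% native PAGE, excised, reverse-transcribed, barcoded by PCR and sequenced. Relative association constants were obtained from read-count changes of each RNA species versus the control reaction and normalised to the cognate motif.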

Row | Binder | binding signal
1 | B1 | 0.0111 KA relative to UGCAUGU
2 | B2 | 0.00847 KA relative to UGCAUGU
3 | B3 | 0.00663 KA relative to UGCAUGU
4 | B4 | 0.0273 KA relative to UGCAUGU
5 | B5 | 0.00541 KA relative to UGCAUGU
6 | B6 | 0.0214 KA relative to UGCAUGU
7 | B7 | 0.00541 KA relative to UGCAUGU
8 | B8 | 0.00594 KA relative to UGCAUGU
9 | B9 | 0.00415 KA relative to UGCAUGU
10 | B10 | 0.0113 KA relative to UGCAUGU
11 | B11 | 0.0228 KA relative to UGCAUGU
12 | B12 | 0.00184 KA relative to UGCAUGU
13 | B13 | 0.0128 KA relative to UGCAUGU
14 | B14 | 0.00251 KA relative to UGCAUGU
15 | B15 | 0.02 KA relative to UGCAUGU
16 | B16 | 0.00539 KA relative to UGCAUGU

Row | Binder | binding signal
17 | B17 | 0.0156 KA relative to UGCAUGU
18 | B18 | 0.0112 KA relative to UGCAUGU
19 | B19 | 0.0123 KA relative to UGCAUGU
20 | B20 | 0.00696 KA relative to UGCAUGU
21 | B21 | 0.00389 KA relative to UGCAUGU
22 | B22 | 0.0317 KA relative to UGCAUGU
23 | B23 | 0.00169 KA relative to UGCAUGU
24 | B24 | 0.00899 KA relative to UGCAUGU
25 | B25 | 0.00404 KA relative to UGCAUGU
26 | B26 | 0.0128 KA relative to UGCAUGU
27 | B27 | 0.0332 KA relative to UGCAUGU
28 | B28 | 0.00728 KA relative to UGCAUGU
29 | B29 | 0.00178 KA relative to UGCAUGU
30 | B30 | 0.000849 KA relative to UGCAUGU
31 | B31 | 0.0064 KA relative to UGCAUGU
